The full ranking holds about 33,000 sequences; the median of “E-score (-0.5 to 0.5)” is about -0.011, and the highest 2% start at about 0.28. This is one part of the list.
target: T1, Gcr1 (UniProt P07261); assay: PBM E-score (8-mer binding enrichment) (E-score (-0.5 to 0.5)); higher = stronger / more preferred TF binding; most listed sequences are background and not binding sites; conditions: protein concentration: 100 nM; construct: GST-full length
T1 sequence: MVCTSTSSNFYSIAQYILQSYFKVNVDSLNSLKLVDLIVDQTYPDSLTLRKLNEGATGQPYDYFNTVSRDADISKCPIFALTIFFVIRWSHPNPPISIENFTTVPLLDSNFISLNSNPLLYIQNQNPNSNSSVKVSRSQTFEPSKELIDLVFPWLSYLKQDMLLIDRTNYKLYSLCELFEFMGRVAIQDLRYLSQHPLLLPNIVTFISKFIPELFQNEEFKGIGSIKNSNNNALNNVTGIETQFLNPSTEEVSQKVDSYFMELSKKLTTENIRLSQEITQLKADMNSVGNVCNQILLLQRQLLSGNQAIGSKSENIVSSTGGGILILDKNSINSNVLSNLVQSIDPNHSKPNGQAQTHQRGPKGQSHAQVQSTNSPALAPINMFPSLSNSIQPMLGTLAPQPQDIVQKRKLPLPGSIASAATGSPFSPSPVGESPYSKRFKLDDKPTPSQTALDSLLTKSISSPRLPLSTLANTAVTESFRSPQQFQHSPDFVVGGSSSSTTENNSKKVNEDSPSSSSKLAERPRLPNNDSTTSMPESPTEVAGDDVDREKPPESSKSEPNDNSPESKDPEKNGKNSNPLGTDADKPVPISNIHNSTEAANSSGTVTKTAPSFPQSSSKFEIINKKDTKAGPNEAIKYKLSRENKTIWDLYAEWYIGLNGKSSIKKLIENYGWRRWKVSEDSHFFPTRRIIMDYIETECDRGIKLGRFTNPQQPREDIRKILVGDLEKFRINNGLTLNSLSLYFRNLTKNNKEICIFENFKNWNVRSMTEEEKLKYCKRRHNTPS
How it was run: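 Using PURExpress in vitro transcription/translation, GST-tagged yeast transcription factors were made in full-length or DNA-binding-domain form. These were applied at about 100-200 nM to double-stranded universal all-10-mer Agilent arrays, and bound protein was detected with fluorescent anti-GST. Scans were normalised with masliner before the Universal PBM Analysis Suite assigned E-scores to ungapped eight-base words pooled with their reverse complements.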

Sequence	PBM E-score
AGAGGGTG	0.196
GCCGCGTA	0.143
AACTGGTC	0.0802
AGTAGGCC	-0.0485
CTAGCGGC	-0.0817
GTAGCTAA	-0.0197
CAGGCAGA	-0.0141
CATGCCTC	-0.101
AGCCTTCG	-0.213
CATGCTCA	-0.194
AAGCCTAT	0.114
GAAGCGAC	-0.0968
ATCGTGGA	0.148
CGAGGATA	0.0495
CAACCACG	-0.048
GGTTATAA	-0.0273
CTATGCCA	-0.0421
GCTAAACA	0.0775
CTGCAGGC	-0.0688
AAAGGCGT	0.0874
GCCTCAAA	-0.0306
AACCAAGG	-0.00121

Sequence	PBM E-score
AATGGGGT	0.0769
CTGGAGCC	0.235
ACCCCGGT	-0.185
ATCCTAGG	0.0587
CCTACAGA	-0.15
AGCGAGAT	-0.00699
CGAGCACG	-0.175
GCAAACCA	-0.0205
CTTAAGGC	-0.071
ATCGCTTC	-0.0186
GCCGAGGC	-0.181
ATTTGGGC	0.103
CGTAGTTC	-0.0582
GGTTAAAC	-0.0126
ATCGTGCC	0.0295
TCCAACCA	0.155
ATCTAGGG	-0.0438
GAGTGAAA	-0.135
GACGTCTC	-0.0327
ATTTAGGC	0.0811
ACCAAAAA	0.205
AGCACACC	-0.188

Sequence	PBM E-score
AACCAAAC	0.0542
AGGCTCCC	0.24
CAGATCTC	-0.0934
CCTTGCAC	0.0164
CTGAGCAA	-0.0295
CTGAAAAG	0.119
CAGGACCA	-0.17
ATCCATGA	-0.00466
CCGTGGCC	-0.227
AGCCGAAG	-0.0728
GAGCGTAC	-0.0546
ATTGCCAC	-0.129
AGCGATTA	0.0479
GAACGTTC	-0.127
TGCCTCAA	0.00217
AGACTCCC	-0.0302
CCCTTCGG	0.119
AAGGCTCG	-0.219
CAACCTGC	-0.133
ACTACCGC	-0.0353
ACCGCGGC	0.143
TCACGAAA	-0.0274

Sequence	PBM E-score
ATCTAGGC	0.0228
CGCCGGCC	-0.207
ACGCTTCG	-0.0461
AGACTCCT	0.147
CACTCCAC	0.0894
GCAGTAGA	0.0267
CTGTGTCA	0.0406
AGATGCCC	0.108
AAGCAAAG	-0.0788
CGTCTTTC	-0.00721
CGACGAAC	-0.0871
ACTTTCTG	-0.176
CGCTTATA	-0.0849
CACCTCTG	0.108
ACGACCCT	-0.155
AGGTGGTA	0.0389
GCGAATGA	0.0568
ACGTTTCT	-0.0839
AATCCAAC	0.112
CTCTCCAC	-0.136
CGCGATCA	-0.0515
CCTATTAC	0.132

Sequence	PBM E-score
CGATTGTA	0.0357
ATTGCCTC	-0.243
CAAGGGTA	-0.122
CATACACC	0.0242
TATGTTCA	-0.0466
AGGCTGCC	0.382
AACGTTGA	-0.239
TGCACCAA	-0.133
AACACACG	0.106
GCAAGGCA	-0.25
GGAAACAC	0.168
ACGTGGCT	0.0763
AGAGTTGC	-0.0857
GAAAACTA	0.0352
ATATGGCC	-0.0751
AGCTAAAT	0.0641
CGGAGAGC	-0.0626
CGGGCGTC	0.307
CTCGATTA	0.151
ACATTGTA	0.036
GGCCACAC	0.0378

From the supplement of paper PMC3334620
